The full ranking holds about 33,000 sequences; the median of “E-score (-0.5 to 0.5)” is about -0.04, and the highest 2% start at about 0.36. The list shows a part of the results.
The sequences below were run against T1, Hmlalpha2 (UniProt P0CY09) (assay: PBM E-score (8-mer binding enrichment) (E-score (-0.5 to 0.5)); higher = stronger / more preferred TF binding; most listed sequences are background and not binding sites). Conditions: protein concentration: 200 nM; construct: GST-full length.
T1 sequence: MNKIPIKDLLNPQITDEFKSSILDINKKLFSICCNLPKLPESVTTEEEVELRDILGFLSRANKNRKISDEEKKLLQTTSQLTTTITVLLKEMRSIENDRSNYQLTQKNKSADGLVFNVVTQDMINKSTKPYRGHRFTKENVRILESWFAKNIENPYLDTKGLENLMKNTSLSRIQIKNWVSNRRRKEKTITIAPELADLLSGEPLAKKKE
Protocol: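 Universal 'all 10-mer' protein binding microarrays (Agilent AMADID 015681) probed with GST-tagged S. cerevisiae TFs (full-length or DBD) made by in vitro transcription/translation (PURExpress), about 100-200 nM. Bound TF was detected with fluorescent anti-GST. Each ungapped 8-mer (which stands for itself and its reverse complement) is scored by the PBM enrichment score (E-score), a modified Wilcoxon-Mann-Whitney statistic from -0.5 to +0.5, computed with the Universal PBM Analysis Suite. Scale: above 0.35 generally sequence-specific binding.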

Sequence	PBM E-score
CACGACAG	0.0992
GCCTATTA	0.0858
AATTCTCC	-0.214
CATGAACA	0.287
GCCACCCC	-0.243
ACAGACGT	0.181
TGAAGTCA	-0.162
CATTGATA	0.0734
CACATATA	0.311
AAAACGAA	0.171
AGCCCGTC	-0.201
AATATTGG	-0.0746
CGGATGCC	0.0226
AATGGTTG	-0.0312
AGTATGAG	-0.00587
CAAACTCG	-0.197
AGGCCGCG	-0.0312
ATTCGCAC	-0.0989
CGTTAGAC	-0.0783
GATAGAGA	-0.247
CAAATGAG	-0.0119
GAACGGAA	-0.143
ACCGGAAT	-0.208
TATATAGA	0.21

Sequence	PBM E-score
AGGTGCGG	-0.0249
AAGACAGA	0.144
AAACATTT	0.213
ATCGAAAG	-0.0356
GGTGCACA	-0.193
GTTCGAAC	0.174
ACGTGGCG	0.108
ATGCTCTC	-0.00497
CTTAAGGA	-0.0813
CTACGGGA	-0.28
ATACCCGC	0.0858
AGTCGAAG	-0.0301
ACCTCGCT	-0.139
CCTATTTA	0.0457
ACCGCACT	-0.0646
AGGAACCC	-0.154
AATAACAG	0.307
CAACAGGA	-0.0223
GCGGCACC	-0.184
CTGACCCA	-0.239
CGCTCTTA	0.0692
CCCGTTGC	-0.185
GCAAGTTA	0.149
GCTGCGAC	-0.17

Sequence	PBM E-score
TGTGCACA	0.0852
ATACGACG	0.146
CAACGTAG	0.128
CCGTTAGA	-0.0606
GCAGACGA	-0.192
AAGTTAGC	0.081
ATATTCCG	0.00723
CGCGGAGC	-0.196
GGTTTGAA	0.0337
CATAGTGC	0.129
GTCCGAAA	-0.0905
ACACCCGT	0.169
CGCAAGGA	-0.139
GGGCTATA	-0.208
AGTGTGTC	0.174
CGAACAAG	0.0622
ATTAGAGA	-0.0241
GCATGATA	0.116
CCAGTCAG	-0.184
ACCACTAA	0.192
ACGACAAT	0.181
AAGGTGGT	-0.0621
ACACACAG	0.364
AGTGCACC	-0.2

Sequence	PBM E-score
CCAGGATA	-0.0585
CATGCGGA	-0.173
ACGTTATA	0.275
CAGCACGC	0.0242
CGCACCCA	-0.19
ATGATGAG	0.0587
ACAACGGC	0.00748
GTCTACTA	0.069
ACAACCCA	0.133
AGTGCATC	-0.0502
AAGGGAGG	-0.31
GTAGTTGA	0.215
CGTCGACG	-0.268
AAGGCGGA	-0.225
CATCTTAA	0.0666
GCACCTCA	0.0504
CTCAACGC	0.101
AACCTGAG	-0.0554
CGAGGTAG	-0.252
AAATGACG	0.185
CGCTTCAG	-0.119
CCCAAACG	-0.123

— the supplement of paper PMC3334620
